According to patent publication US20190055314A1 (ADAGENE, published 2019):

How the values were obtained:
[1] = target: T1, full-length human CD137 on the cell surface (human, UniProt Q07011 18-255); experiment: flow cytometry, yeast display
T1 construct: also called Human WT

[2] = target: T2, full-length mouse CD137 on the cell surface (mouse, UniProt P20334 24-178); experiment: flow cytometry, yeast display
T2 sequence: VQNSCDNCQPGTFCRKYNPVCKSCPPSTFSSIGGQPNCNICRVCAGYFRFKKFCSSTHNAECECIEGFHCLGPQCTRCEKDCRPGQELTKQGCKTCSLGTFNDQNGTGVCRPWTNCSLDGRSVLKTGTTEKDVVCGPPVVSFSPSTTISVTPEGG

Hu_CRD3 = target: T3, Hu_CRD3 (human, limits assumed); experiment: flow cytometry, yeast display [Cont.]
T3 construct: also called human CD137 CRD3
T3 chain: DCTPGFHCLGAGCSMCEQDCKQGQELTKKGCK

Hu_CRD4 = target: T4, Hu_CRD4 (human, UniProt Q07011 119-159, limits assumed); experiment: flow cytometry, yeast display [Cont.]
T4 construct: also called human CD137 CRD4
T4 chain: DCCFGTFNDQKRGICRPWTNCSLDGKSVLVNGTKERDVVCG

Hu_CRD1-CRD2 = target: T5, Hu_CRD1-CRD2 (human, UniProt Q07011 24-86, limits assumed); experiment: flow cytometry, yeast display [Cont.]
T5 construct: also called two CRD units (CRD1-CRD2) of human CD137

Hu_CRD2-CRD3 = target: T6, Hu_CRD2-CRD3 (human, UniProt Q07011 46-118, limits assumed); experiment: flow cytometry, yeast display [Cont.]
T6 construct: also called two CRD units (CRD2-CRD3) of human CD137

Hu_CRD1-CRD2-CRD3 = target: T7, Hu_CRD1-CRD2-CRD3 (human, UniProt Q07011 24-118, limits assumed); experiment: flow cytometry, yeast display [Cont.]
T7 construct: also called three CRD units (CRD1-CRD2-CRD3) of human CD137

Hu_CRD3-CRD4 = target: T8, Hu_CRD3-CRD4 (human, UniProt Q07011 87-159, limits assumed); experiment: flow cytometry, yeast display [Cont.]
T8 construct: also called two CRD units (CRD3-CRD4) of human CD137

Hu_CRD2-CRD3-CRD4 = target: T9, Hu_CRD2-CRD3-CRD4 (human, UniProt Q07011 46-159, limits assumed); experiment: flow cytometry, yeast display [Cont.]
T9 construct: also called three CRD units (CRD2-CRD3-CRD4) of human CD137

[3] = target: T10, rat CD137 on the cell surface (rat, UniProt Q4W8J3 24-258); experiment: flow cytometry, HEK293F cells expressing CD137
T10 sequence: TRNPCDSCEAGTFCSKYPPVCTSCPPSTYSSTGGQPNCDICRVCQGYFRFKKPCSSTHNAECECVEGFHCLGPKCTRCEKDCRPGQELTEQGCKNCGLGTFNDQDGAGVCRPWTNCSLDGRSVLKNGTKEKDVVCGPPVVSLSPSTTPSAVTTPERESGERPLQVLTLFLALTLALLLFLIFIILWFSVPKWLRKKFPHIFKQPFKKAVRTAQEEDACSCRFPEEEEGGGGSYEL

CD95 [4] = target: T11, CD95; experiment: flow cytometry, HEK293F cells expressing the receptor [Cont.]
T11 chain: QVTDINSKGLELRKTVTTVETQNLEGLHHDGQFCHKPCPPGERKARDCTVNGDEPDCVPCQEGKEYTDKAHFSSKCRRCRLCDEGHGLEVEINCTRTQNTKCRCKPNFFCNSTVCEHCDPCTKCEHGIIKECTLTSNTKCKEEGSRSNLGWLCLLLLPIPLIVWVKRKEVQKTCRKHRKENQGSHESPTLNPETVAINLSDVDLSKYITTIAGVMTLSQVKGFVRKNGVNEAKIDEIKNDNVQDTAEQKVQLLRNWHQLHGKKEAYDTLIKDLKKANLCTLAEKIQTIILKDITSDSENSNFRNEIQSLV

CD120a [5] = target: T12, CD120a; experiment: as above
T12 chain: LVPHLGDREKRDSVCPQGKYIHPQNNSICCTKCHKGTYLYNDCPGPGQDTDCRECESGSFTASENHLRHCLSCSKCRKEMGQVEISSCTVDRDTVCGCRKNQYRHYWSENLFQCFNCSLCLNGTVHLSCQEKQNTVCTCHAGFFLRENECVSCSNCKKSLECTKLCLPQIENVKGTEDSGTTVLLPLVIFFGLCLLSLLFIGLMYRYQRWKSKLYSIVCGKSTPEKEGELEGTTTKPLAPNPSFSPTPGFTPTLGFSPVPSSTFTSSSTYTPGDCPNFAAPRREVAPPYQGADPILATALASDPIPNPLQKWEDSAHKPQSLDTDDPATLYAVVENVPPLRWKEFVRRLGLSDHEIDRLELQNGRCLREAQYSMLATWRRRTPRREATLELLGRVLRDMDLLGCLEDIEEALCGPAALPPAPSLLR

[6] = target: T1, full-length human CD137 on the cell …; experiment: flow cytometry, PMA/ionomycin-activated human T cells, antibody 100 nM
[7] = target: T13, full-length monkey CD137 on the cell surface (cynomolgus monkey, UniProt Q07011 24-179 (human entry)); experiment: flow cytometry, PMA/ionomycin-activated monkey T cells, antibody 100 nM
T13 chain: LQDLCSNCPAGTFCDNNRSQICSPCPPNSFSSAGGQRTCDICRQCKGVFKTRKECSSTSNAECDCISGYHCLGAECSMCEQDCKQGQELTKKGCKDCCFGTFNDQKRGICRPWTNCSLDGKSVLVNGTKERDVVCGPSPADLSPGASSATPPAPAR

[8] = target: T14, purified C1q component of the human complement (human, UniProt P02745; P02746; P02747); experiment: ELISA, direct binding of antibody to purified human complement C1q, A450
T14 construct: Purified from complement; also called human complement C1q component
T14 sequence (P02745 23-245, chain 1 of 3): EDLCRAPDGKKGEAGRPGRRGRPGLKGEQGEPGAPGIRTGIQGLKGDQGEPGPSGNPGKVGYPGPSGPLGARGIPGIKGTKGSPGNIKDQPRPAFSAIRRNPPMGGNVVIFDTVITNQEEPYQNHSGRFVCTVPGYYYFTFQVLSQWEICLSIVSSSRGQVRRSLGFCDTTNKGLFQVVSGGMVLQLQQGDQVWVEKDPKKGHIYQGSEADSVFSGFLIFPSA
T14 sequence (P02746 28-253, chain 2 of 3, further chain): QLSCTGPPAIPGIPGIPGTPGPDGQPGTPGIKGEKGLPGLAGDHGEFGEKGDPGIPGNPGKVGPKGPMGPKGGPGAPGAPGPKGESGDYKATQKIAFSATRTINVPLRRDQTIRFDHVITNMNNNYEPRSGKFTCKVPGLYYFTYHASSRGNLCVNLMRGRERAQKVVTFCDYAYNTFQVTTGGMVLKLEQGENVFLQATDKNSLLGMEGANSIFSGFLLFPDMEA
T14 sequence (P02747 29-245, chain 3 of 3, further chain): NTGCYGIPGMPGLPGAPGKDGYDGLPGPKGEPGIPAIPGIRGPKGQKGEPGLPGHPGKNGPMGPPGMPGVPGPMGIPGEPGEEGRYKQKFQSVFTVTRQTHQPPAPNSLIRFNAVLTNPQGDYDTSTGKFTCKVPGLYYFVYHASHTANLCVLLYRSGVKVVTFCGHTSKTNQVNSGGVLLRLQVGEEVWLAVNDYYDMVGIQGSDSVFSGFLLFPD

CD95 [9] = target: T11, CD95; experiment: flow cytometry, HEK293F cells expressing the receptor, antibody 100 nM [Cont.]
CD120a [10] = target: T12, CD120a; experiment: as above
[11] = target: T1, full-length human CD137 on the cell …; experiment: flow cytometry ligand competition, HEK293F cells with human CD137, antibody 100 nM then 33 nM biotinylated CD137L, streptavidin-Alexa 647

B1: AG10131 (antibody, human IgG4 S228P, kappa)
heavy: EVQLVESGGGLVQPGGSLRLSCAASGFSLSTGGVGVGWIRQAPGKGLEWLALIDWADDKYYSPSLKSRLTISRDNSKNTLYLQLNSLRAEDTAVYYCARGGSDTVIGDWFAYWGQGTLVTVSSASTKGPSVFPLAPCSRSTSESTAALGCLVKDYFPEPVTVSWNSGALTSGVHTFPAVLQSSGLYSLSSVVTVPSSSLGTKTYTCNVDHKPSNTKVDKRV[human IgG4 Fc with S228P (EU numbers) skipped]
light: DIQLTQSPSSLSASVGDRVTITCRASQSIGSYLAWYQQKPGKAPKLLIYDASNLETGVPSRFSGSGSGTDFTLTISSLQPEDFATYYCQQGYYLWTFGQGTKVEIKRTVAAPSVFIFPPSDEQLKSGTASVVCLLNNFYPREAKVQWKVDNALQSGNSQESVTEQDSKDSTYSLSSTLTLSKADYEKHKVYACEVTHQGLSSPVTKSFNRGEC
notes: also called AG10131-IgG4
What does the source list for B1?
Mean [1]: 64000; % in upper right quadrant [2]: 35.2%; Mean [2]: 7160; % in upper right quadrant (Hu_CRD3): 0.087%; Mean (Hu_CRD3): 13300; % in upper right quadrant (Hu_CRD4): 0.14%; Mean (Hu_CRD4): 5210; % in upper right quadrant (Hu_CRD1-CRD2): 0.2%; Mean (Hu_CRD1-CRD2): 5740; % in upper right quadrant (Hu_CRD2-CRD3): 0.048%; Mean (Hu_CRD2-CRD3): 4020; % in upper right quadrant (Hu_CRD1-CRD2-CRD3): 55.7%; Mean (Hu_CRD1-CRD2-CRD3): 17500; % in upper right quadrant (Hu_CRD3-CRD4): 0.096%; Mean (Hu_CRD3-CRD4): 25400; % in upper right quadrant (Hu_CRD2-CRD3-CRD4): 0.75%; Mean (Hu_CRD2-CRD3-CRD4): 8000; EC50 (read off the curve) [3]: ~60 nM; binding result (CD95 [4]): no binding (tested: 100 nM (text paragraph 226)); binding result (CD120a [5]): no binding (tested: 100 nM (text paragraph 226)); % of cells positive for antibody binding [6]: 52.4%; % of cells positive for antibody binding [7]: 18.1%; binding result [8]: no binding (tested: Log(Ab) 1.3 [nM], about 20 nM); Mean (CD95 [9]): 13100; Mean (CD120a [10]): 8290; % in upper right quadrant (CD137L signal) [11]: 29.1%; Median (APC signal of bound biotinylated CD137L) [11]: 17700
